Measurements from paper PMC4336329 (PLoS ONE, 2015).
Among all 310,000 compounds or so, about 14,000 (4.5%) showed an effect of 50% or more. Effects have a minus sign here. This is one part of the list.

Each molecule was assayed against human ether-à-go-go-related gene (hERG) potassium channel (human, UniProt Q12809) (assay: primary screen, population patch clamp on CHO cells stably expressing hERG).
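Further: peak tail current of the secondary pulse compared with the same well before compound.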

Chain of human ether-à-go-go-related gene (hERG) potassium channel (Q12809 whole entry, looked up): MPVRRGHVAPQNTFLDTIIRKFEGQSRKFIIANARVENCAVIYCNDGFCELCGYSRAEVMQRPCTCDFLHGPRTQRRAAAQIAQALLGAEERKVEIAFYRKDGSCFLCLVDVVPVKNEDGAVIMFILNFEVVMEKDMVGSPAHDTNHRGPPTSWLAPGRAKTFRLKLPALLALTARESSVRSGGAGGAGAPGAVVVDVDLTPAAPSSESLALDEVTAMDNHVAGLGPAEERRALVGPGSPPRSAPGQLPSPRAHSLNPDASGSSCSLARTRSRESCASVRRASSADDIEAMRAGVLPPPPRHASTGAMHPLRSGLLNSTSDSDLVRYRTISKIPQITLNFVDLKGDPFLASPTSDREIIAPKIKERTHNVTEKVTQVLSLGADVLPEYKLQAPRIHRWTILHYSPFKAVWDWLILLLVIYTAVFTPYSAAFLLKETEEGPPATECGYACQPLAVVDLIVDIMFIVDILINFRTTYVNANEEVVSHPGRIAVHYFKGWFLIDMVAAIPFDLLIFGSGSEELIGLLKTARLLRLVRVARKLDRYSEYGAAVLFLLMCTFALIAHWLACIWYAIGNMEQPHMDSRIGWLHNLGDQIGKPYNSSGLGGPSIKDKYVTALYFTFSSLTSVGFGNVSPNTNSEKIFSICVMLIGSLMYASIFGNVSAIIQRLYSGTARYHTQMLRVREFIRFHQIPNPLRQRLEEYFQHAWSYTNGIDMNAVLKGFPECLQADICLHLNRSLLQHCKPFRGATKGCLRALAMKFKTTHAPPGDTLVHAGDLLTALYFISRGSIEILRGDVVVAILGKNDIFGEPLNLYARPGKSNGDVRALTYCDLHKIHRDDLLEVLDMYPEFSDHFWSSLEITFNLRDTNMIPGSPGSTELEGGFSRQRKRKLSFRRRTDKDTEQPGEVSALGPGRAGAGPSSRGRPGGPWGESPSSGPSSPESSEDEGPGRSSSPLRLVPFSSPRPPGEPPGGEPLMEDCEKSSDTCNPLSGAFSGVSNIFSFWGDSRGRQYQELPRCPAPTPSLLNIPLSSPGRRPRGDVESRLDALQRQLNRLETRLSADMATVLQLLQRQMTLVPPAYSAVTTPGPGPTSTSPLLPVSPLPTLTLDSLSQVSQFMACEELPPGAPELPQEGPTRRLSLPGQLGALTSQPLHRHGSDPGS

| SMILES | hERG current change (%, negative = inhibition) at 10uM |
| --- | --- |
| O=C1N=C(N2CCC(Cc3ccccc3)CC2)S/C1=C/c1cn[nH]c1-c1ccccc1 | -2.87% |
| CCCCCc1cc(=O)[nH]c(=S)[nH]1 | 21.6% |
| O=S1(=O)N=CN(Cc2cccc(F)c2)c2ccccc21 | 2.85% |
| CCc1ccc(-c2cc(C)no2)cc1S(=O)(=O)N1CCN(c2cccc(C)c2C)CC1 | 18.3% |
| Cc1ccc(C)c(N2CCN(CC3CC=CCC3)CC2)c1 (centres unmarked) | -7.32% |
| COc1ccccc1CN1C[C@@H]2C[C@@H](c3ccccc3C)N3CCC[C@@]23C1=O | 17.4% |
| CC[C@H](C)Cc1cn([C@@H](CCCCNC(=O)OC(C)(C)C)C(=O)NCCCCCCCCCCC(=O)N2CCN(C(=O)OC(C)(C)C)CC2)nn1 | -7.18% |
| O=C(CN1C(=O)NC2(CCCCCC2)C1=O)NC1CCCCCCC1 | 12.8% |
| O=C(Nc1cccc(F)c1)NC1(C(=O)NCC2CCCO2)CCCCC1 (centres unmarked) | 14.4% |
| O=C(Nc1cc(Cl)ccc1O)c1cc2n(n1)C(C(F)(F)F)CC(c1ccc3c(c1)OCO3)N2 (centres unmarked) | -4.28% |
| O=C(CCC(=O)c1ccc(Oc2ccccc2)cc1)Nc1ccc(Cl)cc1Cl | 5.46% |
| COc1ccccc1NC(=O)c1ccc(NS(=O)(=O)c2ccc(F)c(Cl)c2)cc1 | 7.49% |
| Cc1nc2cc(C(F)(F)F)ccc2n1CCNc1nc(-c2ccc(F)cc2)cs1 | 4.09% |
| COc1ccc(-c2[nH]ncc2/C=N\NS(=O)(=O)c2ccccc2)cc1OC | 8.63% |
| COc1cc2c(C#N)c(N3CCOCC3)nc(N)c2c(N)n1 | 0.381% |
| COCC(CN1CCN(C2=NS(=O)(=O)c3ccccc32)CC1)OC(=O)c1ccccc1 (centres unmarked) | -24% |
| CC(C)C[C@H](NC(=O)c1[nH]cnc1C(=O)Nc1ccc(CNC(=O)OC(C)(C)C)cc1)C(=O)OC(C)(C)C | 16.1% |
| CC1(c2ccc(Cl)cc2)NC(=O)N(CC(=O)NC(=O)NCc2ccco2)C1=O (centres unmarked) | 1.81% |
| S=C(CN1CCCC1=S)NCCc1ccccc1 | 14.3% |
| NC(=O)CSc1nnc(-c2cccs2)n1Cc1ccco1 | -13.9% |
| O=C(CC(NCCc1ccccc1)C(=O)O)Nc1ccc(O)cc1 (centres unmarked) | -10.2% |
| C/C(CC(=O)Nc1ccccc1[N+](=O)[O-])=N\NC(=O)COc1ccccc1C | -5.65% |

| SMILES | hERG current change (%, negative = inhibition) at 10uM |
| --- | --- |
| Cc1c(C(=O)N2CCCC2)oc2ccc(Br)cc12 | 5.87% |
| CC1CCCCC1NC(=O)CSc1nnc(COc2ccccc2Cl)o1 (centres unmarked) | 6.74% |
| CC(C)(C)c1ccc(C(=O)C2CCCN(C3CCC3)C2)cc1 (centres unmarked) | -18.4% |
| CN(C(=O)CSc1nnc(CNC(=O)c2ccccc2)o1)c1ccccc1 | -4.27% |
| CCn1c(=N)c(S(=O)(=O)c2ccc(F)cc2)cc2c(=O)n3ccccc3nc21 | -10.5% |
| CCOC(=O)Cc1csc(NC(=O)c2cc(OC)cc(OC)c2)n1 | -10.6% |
| CCCC(C)c1nnc(NC(=O)CCS(=O)(=O)Cc2ccccc2)s1 (centres unmarked) | 13.1% |
| COc1ccc(NC(=O)CN2CCN(CC(=O)Nc3ccc(OC)c(OC)c3)CC2)cc1 | -74.6% |
| COc1cc(/C=N/Nc2snc(SC)c2C#N)cc(OC)c1OC | 10.5% |
| O=C(c1ccc(C#CC2(O)CCCCC2)cc1)N1CCOCC1 | 10.7% |
| CN(C)S(=O)(=O)c1ccc(C(=O)OCC(=O)Nc2sc3c(c2C#N)CCCCC3)cc1 | 4.54% |
| COc1ccc(OC)c(Cc2nnc(CCC(=O)N3CCC(N4CCCCC4)CC3)o2)c1 | -0.336% |
| CCOc1ccc(S(=O)(=O)NCc2cccnc2)cc1NC(=O)c1ccccc1F | 11.1% |
| CC(C)c1nnc(NC(=O)CN(C)S(=O)(=O)c2ccc3c(c2)OCCO3)s1 | 9.25% |
| O=C1CC(c2ccsc2)c2cc3c(cc2N1)OCCO3 (centres unmarked) | -4.17% |
| O=C(NC(=S)Nc1ccc(N2CCCC2)cc1)c1ccccc1[N+](=O)[O-] | -2.59% |
| NC(=O)c1cc(C(=O)c2ccc(Cl)cc2Cl)c[nH]1 | 7.81% |
| CNc1cc([N+](=O)[O-])ccc1N/C=C/C(=O)c1cccs1 | -0.257% |
| O=C(Nc1nnc(CSCc2ccccc2F)s1)c1cccc([N+](=O)[O-])c1 | -0.45% |
| CCOc1ccc(CC(=O)N2CCC3(CC2)NCCc2[nH]cnc23)cc1 | 16.3% |
| COC(=O)c1cnn(-c2ccccc2)c1-n1cccc1C=O | 7.29% |
| c1ccc(CCN(Cc2ccccc2)Cc2nc(C3CC3)no2)cc1 | 10.2% |

| SMILES | hERG current change (%, negative = inhibition) at 10uM |
| --- | --- |
| COc1ccc(CN(C)CCc2ccccn2)c(OC)c1OC.O=C(O)C(=O)O | -38.9% |
| Cn1c(=O)c([N+](=O)[O-])c(-n2ccnc2)c2ccccc21 | -7.68% |
| CCOc1ccc(CCNC(=O)C2CC(=O)N(Cc3ccc(C)cc3)C2)cc1OCC (centres unmarked) | -2.17% |
| O=C(NCc1ccco1)C(=O)NCC(c1ccco1)N1CCOCC1 (centres unmarked) | 13% |
| Cc1cccc(NC(=O)C2CCN(c3ncnc4c3nc3n4CCCCC3)CC2)n1 | -29.5% |
| Cc1ccccc1C(=O)Nc1nc2n(n1)C(c1ccccc1)CC(=O)N2 (centres unmarked) | -10.4% |
| Cc1ccc(C)c(N2CCN(CC3CCCCC3)CC2)c1 | 11.3% |
| N#Cc1ccc(C(=O)Nc2cc(-c3ccccc3)nn2-c2ccccc2)cc1 | -41.8% |
| CCN(CC(=O)Nc1ccc2c(c1)OCCO2)S(=O)(=O)c1cccs1 | -4.54% |
| CC(=O)NC1(C(F)(F)F)C(=O)N(Cc2ccccc2)C2=C1C(=O)CC(C)(C)C2 (centres unmarked) | 26.4% |
| O=C(O)CC1(CC(=O)Nc2ccccc2N2CCOCC2)CCCC1 | 10.8% |
| CCOc1ccccc1NC(=O)CSc1nnc(-c2ccncc2)o1 | -6.16% |
| Cc1ccccc1CNC(=O)CN1C(=O)c2ccccc2S1(=O)=O | -0.629% |
| COc1ccc(C)cc1N(C(=O)Cn1nnc(-c2ccc(C)o2)n1)C(C(=O)NC1CCCC1)c1ccncc1 (centres unmarked) | 10% |
| O=C(Nc1ccc(N2CCOCC2)c(Cl)c1)c1cc(F)c(F)cc1Cl | -20.9% |
| CC(C)OP(=O)(OC(C)C)C(Nc1ccccc1)c1cccnc1 (centres unmarked) | 6.73% |
| Cc1cc(C)n2nc(SCn3nnc4ccccc4c3=O)nc2n1 | 6.26% |
| CCC(=O)Nc1nnc(SCC(=O)Nc2ccc3c(c2)OCO3)s1 | 14.3% |
| O=C(/C=C/c1ccc(Br)o1)Nc1nccs1 | 4.09% |
| CC(=O)CCC(=O)N1CCC(n2nccc2NC(=O)c2ccccc2C)CC1 | 9.06% |
| COc1ccc(/C=C2/N=C3CCCCCN3C2=O)cc1 | 3.13% |
| CC1CCCCN1CCCNc1ccc(C(CC(N)=O)NC(=O)Cc2cccc3ccccc23)cc1[N+](=O)[O-] (centres unmarked) | -14.6% |

| SMILES | hERG current change (%, negative = inhibition) at 10uM |
| --- | --- |
| CCOP(=O)(C#Cc1ccccc1)C(O)c1ccc(Br)cc1 (centres unmarked) | -28.3% |
| O=C(CN1CCCCCC1)Nc1ccc(Br)cn1 | -20.7% |
| Cc1cc(C)c(CNC(=O)c2cc(C3CC3)nc3c2cnn3C(C)C)c(=O)[nH]1 | -35.5% |
| COc1ccc([N+](=O)[O-])cc1N(CC(=O)NCc1ccco1)S(C)(=O)=O | 11.9% |
| COc1ccc(C[C@H]2CN3C(=NC[C@@H]3Cc3ccccc3)N2CCNC(=O)CCC2CCCCC2)cc1 | -73.7% |
| O=C(Nc1ccc(C2CCCCC2)cc1)C1CCCN(c2ncccn2)C1 (centres unmarked) | -7.76% |
| C=C1CC2C=C(NC(C)=O)CC(C1)C2 (centres unmarked) | 1.9% |
| COc1ccc(C(CCNCc2ccc(OC(C)C)cc2)C(C)C)cc1 (centres unmarked) | -39% |
| O=C(/C=C\c1ccco1)Nc1cc([N+](=O)[O-])ccc1F | -5.06% |
| COc1ccccc1OC1OC2COC(c3ccco3)OC2C(O)C1NC(C)=O (centres unmarked) | -1.85% |
| CN(Cc1ccccc1)C(=O)COC(=O)c1ccc(=O)n(Cc2ccccc2)n1 | -25.8% |
| N#CCCN(C(=O)COC(=O)C1CCN(c2ccc(C(F)(F)F)cn2)CC1)c1ccc(F)cc1 | -40.5% |
| CC(=O)c1c(C)[nH]c(C(=O)Nc2cccc(C(F)(F)F)c2)c1C | 14.8% |
| CC(C)CCNC(=O)c1cccnc1Sc1ccccc1 | 20.9% |
| Cc1cccc(N(CC(=O)NCc2ccc(F)cc2)C(=O)c2ccco2)c1 | -10.6% |
| N#Cc1ccc(C(c2nnnn2C2CCCC2)N2CCC(Cc3ccccc3)CC2)cc1 (centres unmarked) | 14.3% |
| CN(C)S(=O)(=O)c1cccc(NC(=O)c2c[nH]c3ccccc23)c1 | 19.9% |
| Cc1cccc(NC(=O)[C@H](Cc2ccccc2)NC(=O)OCc2ccccc2)c1 | 6.44% |
| COc1ccccc1NC(=O)Cn1nnc(-c2ccccc2NC(=O)c2cccs2)n1 | 1.34% |
| N#Cc1ccc(Oc2cccc3cccnc23)c([N+](=O)[O-])c1 | -79.1% |
